For test [1], the system named is T. b. brucei Lister S427 (a drug-sensitive wild type). Nature of the test: Resazurin-based (Alamar blue) drug sensitivity assay. The settings on record: for T.b. brucei Selectivity Indices (SI, IC50 (μM)/IC50 (μM)) Group: cytotoxicity against HEK293 cells vs T.b. brucei; for IC50: Trypanosoma brucei, read-out: IC50 T.b. brucei.
Test [2] deals with T. congolense IL3000 (a drug sensitive wild type). The test is described as above. The settings on record: Trypanosoma congolense, read-out: IC50 T. congo. As to the method:
A detailed description of the procedure for evaluating activity against trypanosomes, using an Alamar Blue (resazurin) assay, is described below.
The BSF T. congolense IL3000 and a clonal line, 6C3, adapted from IL3000 in vitro with diminazene aceturate (Merck), leading to a ˜10-fold resistance, were cultured in TCBSF3 medium without red blood cells (see Zheoat, A. M. et al., 2021, Pathogens (Basel, Switzerland), 10(2), 175). Dulbecco's minimum essential medium (MEM) was supplemented with 25 mM (4-(2-hydroxyethyl)-1-piperazineethanesulfonic acid) (HEPES), 26 mM NaHCO3, 5.6 mM Dd-glucose, 1 mM sodium pyruvate, 40 μM adenosine, 100 μM hypoxanthine, 16.5 μM thymidine, and 25 μM bathocuproinedisulfonic acid disodium salt. To this basal medium were added β-mercaptoethanol (0.0014% v/v), 1.6 mM glutamine, 100 units/mL penicillin/0.1 mg/mL streptomycin (Gibco), 20% goat serum (Gibco), and 5% Serum Plus (SAFC Bi-osciences) (see Coustou, V. et al., 2010, PLoS Negl. Trop. Dis., 4, e618 and Giordani, F. et al., J. Med. Chem., 2019, 62, 3021-3035). The BSF T. congolense IL3000 WT and its derived line, 6C3, were cultured at 34° C. in a humidified, 5% CO2 environment.
A resazurin-based (Alamar blue) drug sensitivity assay was used to assess and compare the activity of standard trypanocides in the different cell lines investigated (see Gould, M. K. et al., Anal. Biochem., 2008, 382, 87-93). Briefly, 23 doubling dilutions of the test compound of the invention, starting at 100 μM, and a compound-free control were prepared in 100 μL medium in a 96-well white plate (Greiner Bio-one, Frickenhausen, Germany). The cells were adjusted to 2×10^4 cells/mL for T. b. brucei and T. equiperdum; 4×10^4 cells/mL for T. evansi; and 5×10^5 cells/mL for T. congolense in the appropriate medium. 100 μL of the adjusted cells was then added to the wells containing drug dilutions and incubated for 48 h under respective culture condition. Thereafter, 20 μL of 125 mg/mL resazurin sodium dye was added, and the plate was incubated for a further 24 h. The resorufin fluorescence in each well of the plate was determined and used to calculate the Half maximal effective concentration (EC50) of the drug, as described in Carruthers, L. V. et al., Mol. Microbiol., 2021, 116, 564-588.

The source of these data is patent US20250313546A1, “NUCLEIC ACID BINDERS” (UNIVERSITY OF STRATHCLYDE, priority 2022, published 2025).

Some results are limits rather than exact numbers.

As to `Cn1cc(NC(=O)c2ccc(/C=C/c3cnc4ccccc4c3)cc2)cc1C(=O)Nc1cc(C(=O)N2CCCCC2)n(C)c1` [IVb1, (E)-1-methyl-N-(1-methyl-5-(piperidine-1-carbonyl)-1H-pyrrol-3-yl)-4-(4-(2-(quinolin-3-yl)vinyl)benzamido)-1H-pyrrole-2-carboxamide], the “T.b. brucei Selectivity Indices (SI, IC50 (μM)/IC50 (μM)) Group” value (“T.b. brucei Selectivity Indices” for short) in test [1] (Amides) is on record as “C (Group C: 1.5 < SI <= 3)”. Further, the figures for the concentration for half-maximal inhibition (IC50) in test [1] and in test [2] were 250 to 1000 nM and > 1000 nM, respectively.

As for `Cn1cc(NC(=O)c2cc(NC(=O)c3ccc(/C=C/c4ccc(C(F)(F)F)cc4)cc3)cn2C)cc1C(=O)NCCC(=N)N` [Ref-6, reference compound], in test [1] (Alkyl Amidines and NH Pyrroles), the “T.b. brucei Selectivity Indices” value is “A (Group A: SI < 70)”.

As to `CCCCCCCCCCCCCCCC[N+](C)(C)CCNC(=O)c1cc(NC(=O)c2cc(NC(=O)c3ccc(/C=C/c4cnc5ccccc5c4)cc3)cn2C)cn1C` [Ic15, (E)-N,N-dimethyl-N-(2-(1-methyl-4-(1-methyl-4-(4-(2-(quinolin-3-yl)vinyl)benzamido)-1H-pyrrole-2-carboxamido)-1H-pyrrole-2-carboxamido)ethyl)hexadecan-1-aminium], the IC50 in test [1] and in test [2] was > 1000 nM in each case.

Regarding `CCCCCC[N+](C)(C)CCNC(=O)c1cc(NC(=O)c2cc(NC(=O)c3ccc(/C=C/c4cnc5ccccc5c4)cc3)cn2C)cn1C` [Ic5, (E)-N,N-dimethyl-N-(2-(1-methyl-4-(1-methyl-4-(4-(2-(quinolin-3-yl)vinyl)benzamido)-1H-pyrrole-2-carboxamido)-1H-pyrrole-2-carboxamido)ethyl)hexan-1-aminium], in test [1] (Quaternary ammoniums), the “T.b. brucei Selectivity Indices” value was “B (Group B: 40 < SI <= 80)”. Further, the half-maximal inhibitory concentration (IC50) was 50 to 250 nM in test [1] and < 50 nM in test [2].

In the case of `COc1cccc(/C=C/c2ccc(C(=O)Nc3cc(C(=O)Nc4cc(C(=O)NCCC(=N)N)n(C)c4)n(C)c3)cc2)c1` [Ref-5, reference compound], the “T.b. brucei Selectivity Indices” value in test [1] (Alkyl Amidines and NH Pyrroles) was “A (Group A: SI < 70)”.

As for `CCC[N+](C)(C)CCNC(=O)c1cc(NC(=O)c2cc(NC(=O)c3ccc(/C=C/c4cnc5ccccc5c4)cc3)cn2C)cn1C` [Ic2, (E)-N,N-dimethyl-N-(2-(1-methyl-4-(1-methyl-4-(4-(2-(quinolin-3-yl)vinyl)benzamido)-1H-pyrrole-2-carboxamido)-1H-pyrrole-2-carboxamido)ethyl)propan-1-aminium], the IC50 in test [1] and in test [2] was < 50 nM each time.

With `CCCC/N=C(\CCNC(=O)c1cc(NC(=O)c2cc(NC(=O)c3ccc(/C=C/c4ccc(N(C)C)cc4)nc3)cn2C)cn1C)NCCCC` [Ia39, N-(5-((5-(((E)-3-(butylamino)-3-(butylimino)propyl)carbamoyl)-1-methyl-1H-pyrrol-3-yl)carbamoyl)-1-methyl-1H-pyrrol-3-yl)-6-((E)-4-(dimethylamino)styryl)nicotinamide], the IC50 in test [1] and in test [2] was > 1000 nM each time.

`COc1ccc(/C=C/c2ccc(C(=O)Nc3cc(C(=O)Nc4cc(C(=O)NCCC(=N)NC(C)C)n(C)c4)n(C)c3)cc2)cc1` [Ia18, (E)-N-(3-imino-3-(isopropylamino)propyl)-4-(4-(4-(4-methoxystyryl)benzamido)-1-methyl-1H-pyrrole-2-carboxamido)-1-methyl-1H-pyrrole-2-carboxamide]: the “T.b. brucei Selectivity Indices” value in test [1] (Alkyl Amidines and NH Pyrroles) is “B (Group B: 70 < SI <= 150)”. Moreover, the IC50 in test [1] is 250 to 1000 nM; in test [2], < 50 nM.

As to `[H]/N=C(\CCNC(=O)c1cc(NC(=O)c2cc(NC(=O)c3ccc(C=Cc4ccc5nonc5c4)cc3)cn2C)cn1C)NCCCN(C)C` [Ia46, (E)-4-(4-(2-(benzo[c][1,2,5]oxadiazol-5-yl)vinyl)benzamido)-N-(5-((3-((3-(dimethylamino)propyl)amino)-3-iminopropyl)carbamoyl)-1-methyl-1H-pyrrol-3-yl)-1-methyl-1H-pyrrole-2-carboxamide], the half-inhibitory concentration (IC50) in test [1] and in test [2] was > 1000 nM each time.

For `CCCCCCCCCCC[N+](C)(C)CCNC(=O)c1cc(NC(=O)c2cc(NC(=O)c3ccc(/C=C/c4cnc5ccccc5c4)cc3)cn2C)cn1C` [Ic10, (E)-N,N-dimethyl-N-(2-(1-methyl-4-(1-methyl-4-(4-(2-(quinolin-3-yl)vinyl)benzamido)-1H-pyrrole-2-carboxamido)-1H-pyrrole-2-carboxamido)ethyl)undecan-1-aminium], in test [1] (Quaternary ammoniums), the “T.b. brucei Selectivity Indices” value is reported as “C (Group C: 80 < SI <= 120)”. Further, the 50% inhibitory concentration (IC50) in test [1] and in test [2] was 50 to 250 nM each time.

As for `CCCCCCCCCCCCCCCCCC[N+](C)(C)CCNC(=O)c1cc(NC(=O)c2cc(NC(=O)c3ccc(/C=C/c4cnc5ccccc5c4)cc3)cn2C)cn1C` [Ic17, (E)-N,N-dimethyl-N-(2-(1-methyl-4-(1-methyl-4-(4-(2-(quinolin-3-yl)vinyl)benzamido)-1H-pyrrole-2-carboxamido)-1H-pyrrole-2-carboxamido)ethyl)octadecan-1-aminium], the IC50 in test [1] and in test [2] was > 1000 nM each time.

Turning to `CC[N+](C)(C)CCNC(=O)c1cc(NC(=O)c2cc(NC(=O)c3ccc(/C=C/c4cnc5ccccc5c4)cc3)cn2C)cn1C` [Ic1, (E)-N-ethyl-N,N-dimethyl-2-(1-methyl-4-(1-methyl-4-(4-(2-(quinolin-3-yl)vinyl)benzamido)-1H-pyrrole-2-carboxamido)-1H-pyrrole-2-carboxamido)ethan-1-aminium], the IC50 in test [1] is < 50 nM; in test [2] it was 50 to 250 nM.

In the case of `COc1cccc(/C=C/c2ccc(C(=O)Nc3cc(C(=O)Nc4cc(C(=O)NCCN5CCOCC5)n(C)c4)n(C)c3)cc2)c1` [Ref-1, reference compound], in test [1] (Alkyl Amidines and NH Pyrroles), the “T.b. brucei Selectivity Indices” value is given as “A (Group A: SI < 70)”.

Consider `COc1cccc(/C=C/c2ccc(C(=O)Nc3cc(C(=O)Nc4cc(C(=O)NCCC(=N)NC(C)C)n(C)c4)n(C)c3)cc2)c1` [Ia19, (E)-N-(3-imino-3-(isopropylamino)propyl)-4-(4-(4-(3-methoxystyryl)benzamido)-1-methyl-1H-pyrrole-2-carboxamido)-1-methyl-1H-pyrrole-2-carboxamide], for which the “T.b. brucei Selectivity Indices” value in test [1] (Alkyl Amidines and NH Pyrroles) is given as “B (Group B: 70 < SI <= 150)”. Moreover, the concentration for half-maximal inhibition (IC50) was 250 to 1000 nM in test [1] and < 50 nM in test [2].

In the case of `Cn1cc(NC(=O)c2cc(NC(=O)c3ccc(/C=C/c4cnc5ccccc5c4)cc3)cn2C)cc1C(=O)NCCN1CCOCC1` [Ref-3, (E)-1-methyl-4-(1-methyl-4-(4-(2-(quinolin-3-yl)vinyl)benzamido)-1H-pyrrole-2-carboxamido)-N-(2-morpholinoethyl)-1H-pyrrole-2-carboxamide, reference compound], the “T.b. brucei Selectivity Indices” value was “A (Group A: SI < 70)” in test [1] (Alkyl Amidines and NH Pyrroles); “A (Group A: SI < 0.7)” in test [1] (Amides).

For the compound `CN(C)CCNC(=O)c1cc(NC(=O)c2cc(NC(=O)c3ccc(/C=C/c4cnc5ccccc5c4)cc3)cn2C)cn1C` [Ref-7, (E)-N-(2-(dimethylamino)ethyl)-1-methyl-4-(1-methyl-4-(4-(2-(quinolin-3-yl)vinyl)benzamido)-1H-pyrrole-2-carboxamido)-1H-pyrrole-2-carboxamide, reference compound], the “T.b. brucei Selectivity Indices” value is “A (Group A: SI < 70)” in test [1] (Alkyl Amidines and NH Pyrroles); “A (Group A: SI < 40)” in test [1] (Quaternary ammoniums).

Turning to `COc1ccc(/C=C/c2ccc(C(=O)Nc3cc(C(=O)Nc4cc(C(=O)NCCN5CCOCC5)n(C)c4)n(C)c3)cn2)cc1` [Ref-2, reference compound], the “T.b. brucei Selectivity Indices” value in test [1] (Alkyl Amidines and NH Pyrroles) was “A (Group A: SI < 70)”.
